Experimental data: the supplement of paper PMC11417369
This is one part of the list.

System: PfAP2-HC AP2 domain (GST-tagged)
Assay: gcPBM binding intensity (ln(normalized median fluorescence intensity)); higher = stronger DNA binding
Procedure, shortened: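 Probes on an Agilent 4 × 180k array were primer-extended, double-stranded and 36 bp long, taken from intergenic genomic regions, with negative controls added. GST-tagged P. falciparum DNA-binding domains from E. coli, about 25 μg on average, were applied to the array for 1 h in 1× PBS containing 1% milk, 0.2 mg/ml BSA, 0.5% salmon testes DNA and 0.03% Triton X-100. Binding intensity, obtained after Alexa488 anti-GST antibody detection and a 488 nm scan, is the highest Masliner-normalised natural-log median intensity across replicate spots of either probe orientation.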

| Sequence | gcPBM binding intensity (ln) |
| --- | --- |
| GCCTACAGACTTAGTAGTACATGAGAAGATATATAT [XGTACX_site2269] | 9.48 |
| AATATGAACGGACACACACACACAAAAAAAAAAAAA [CACACA_site5154] | 10.6 |
| AAAATTTTTAAATATTGTACTATTTATTTTTAGCAT [XGTACX_site6190] | 9.56 |
| AGGAAAAACTTGAATGCATGCGCACATTCTAGTTTG [TGCATGCA_site776] | 9.63 |
| TATTATTACGTAATATGTACATATATTTATACCACT [XGTACX_site5918] | 9.74 |
| AAAAAAAAAAAAAAATGTACAAAAATTACTATAAAA [XGTACX_site7683] | 9.48 |
| TTTTTTTTTGTTTACACACACAAAATATTATATGTA [CACACA_site2470] | 10.1 |
| AAAAATATATATAACACACACATAATATATATATAT [CACACA_site2537] | 10.2 |
| TTATAACACATTACATGTACAAATATAAATATATTC [XGTACX_site6503] | 9.54 |
| ATAACGATATATGTGCGTACTTATAGAATAAGCAAA [XGTACX_site6743] | 9.74 |
| AAAATTATATATTATTGTACATAAAATTTTGACATA [XGTACX_site4886] | 9.44 |
| ATATATCATATTATAGTGCATTTATAATAATATTAT | 9.55 |
| TATTATCTGTAGTGTACACATATTATATAGTACTTT [CACACA_site4582] | 9.8 |
| TATTTTTTTTTTATATGTACATAATTTCAAATAAAT [XGTACX_site7747] | 9.45 |
| AAGGATATAACATACACACACACACCGATATATATA [CACACA_site6136] | 10.6 |
| TTTATTTATCTGTATACACACTTTAATGAAAAGTTG [CACACA_site5400] | 9.64 |
| ACAAATCTAAGATAGTGTACATTTATATATATATAT [XGTACX_site8740] | 9.87 |
| TATATATATATATAAGTGCATATAAAAATCGTTCGT | 9.81 |
| ATATATATATAATAAACACACACATATACATATATG [CACACA_site9145] | 10.5 |
| ATTTTTTTTTTTTTTTTTTTTTTTTGGAGAAAGAGA [CACACA_negctrl_site1119] | 8.98 |

| Sequence | gcPBM binding intensity (ln) |
| --- | --- |
| AATATAAATAAAAACACACACACACCCATATATATA [CACACA_site2267] | 11.3 |
| TTTATATACACACAGAAGAACAGAAATATTATATAT [TGCATGCA_negctrl_site483] | 9.86 |
| ATATATATATATATATGTACATATATGTATACCTTA [XGTACX_site6791] | 9.78 |
| ATAAATACTAGGCACACACACATATATATATATATA [CACACA_site2080] | 10.4 |
| CAATAGTTCTTATGGGTGCAAACCACATATATATAA [GTGCAC_site9606] | 9.54 |
| TATTTATTTTTCTGTTGTACTTTTCAACATGTTACA [XGTACX_site7457] | 9.64 |
| TCTACATATTAATTATGTACGAATTATTATTAGTAA [XGTACX_site6924] | 9.45 |
| TAAATGGGTGTTAATGCACACGATATGTCTATATAT [CACACA_site5321] | 9.8 |
| TATTTATGTTCATATAAACACACGTAAAATTCAAGG [CACACA_site1538] | 9.62 |
| GTCCCTATAAGGGGAACACACATAAATGGATATATA [CACACA_site6612] | 9.58 |
| CATATTCATAAAAGTTGTACATGCAATTTTTTTTTT [XGTACX_site2261] | 9.6 |
| TCAATAAAAAAAAACGCACACACAAATATATTCCAT [CACACA_site1223] | 11 |
| AAAAATCAATTAGAAGAACACACGTAAATTTTTTTT [CACACA_site2396] | 9.76 |
| TATTAATAAAACCGTTGTACTACATACATAAATATT [XGTACX_site5578] | 9.61 |
| CATTATATGATTTATGTGCACATTCATTTATTTTAA | 9.8 |
| ATACTATATATATAAGTGCATGTTCATTATACCTAA | 9.54 |
| ATATATATTATGTGTGTGCACTTTTGTTATTATTAT | 10.2 |
| ATAACTAAATGATATTGTACAAAATAATTATATATT [XGTACX_site1331] | 9.73 |
| TTAAATTGAATTAGTTAACACACAACTTTTATTTCA [CACACA_site8921] | 9.65 |
| TCTTCATACGACTAAAAAACATTAGACTGATAAAAA [CACACA_negctrl_site628] | 9.13 |

| Sequence | gcPBM binding intensity (ln) |
| --- | --- |
| TATTACACATATTATACACACATATATTATATATAT [CACACA_site4951] | 10.2 |
| TAACATATTTTTAATACACACTTAAAAAAGTACTTA [CACACA_site4875] | 9.37 |
| TATAGCATAAATATGTGTACATATTTATATGATATT [XGTACX_site6333] | 9.81 |
| TATATATAATATTATACACACATATATGCATAATAT [CACACA_site54] | 9.86 |
| TATTTATTTATATAAACACACATAAATATAAATATA [CACACA_site6653] | 9.45 |
| ATATATATTTAAAAAAGTACAGAAGAAAATAACCCA [XGTACX_site642] | 9.86 |
| TTGTGTTTTACATATACATGCAAATTTTTTTTTTTA [TGCATGCA_site303] | 9.39 |
| TTTCTTTTTTCATTTACACACAATAATATAAGAATA [CACACA_site3164] | 9.52 |
| TACACAAATATATATATATATATATATATATATATA [XGTACX_negctrl_site305] | 10.2 |
| AGTTTAGAATTTAATACACACAAAAAAAAAAAATTA [CACACA_site7698] | 9.8 |
| AACGTTCAATTTAAATGTACAAATGTATTTAAATAT [XGTACX_site315] | 9.61 |
| AAATACAAAATTGTTACACACATATTAAGTATGACA [CACACA_site4421] | 9.85 |
| AGCTCATGCAGGTGTACACAAAAAGAAAAAAAATAA [CACACA_site4828] | 9.73 |
| AAAACAAATATATTAACACACAAACATATAAACAAA [CACACA_site6052] | 10.4 |
| ATAAATAATGTTGACACACACAATAATCTTATTATG [CACACA_site3593] | 10 |
| ATGTCCTCAATGTTTACACACTCTTTTATATAAGTT [CACACA_site1460] | 10 |
| CCCCATATAATGAACACACACACTCCTCATAATTAA [CACACA_site628] | 10.4 |
| TGCTTATATATACGTGCACACATATATATAAGATAT [CACACA_site8516] | 9.75 |
